# PubChem BioAssay (NCI)
#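 Growth conditions: 96-well plates. Treatment: test compound, 48 hours, 5 concentrations. Analysis: linear interpolation between bracketing concentrations; unreached endpoints set to highest concentration. GI50: concentration for 50% inhibition of growth. TGI: concentration producing complete growth inhibition.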
# System: NCI-H322M lung
# Assay: NCI-60 cell line screen, 48 h
Compound,GI50,TGI
NC(=O)n1c(=O)n(-c2cccc(C(F)(F)F)c2)c(=O)c2cc(-c3ccc(F)cc3F)ccc21,2.35 µM,9.1 µM
CN1CCN(Cc2ccc(NC(=O)c3cncc(C#Cc4cnc5ccc(OC6CCOCC6)nn45)c3)cc2C(F)(F)F)CC1,0.213 µM,1.09 µM
